Source: the supplement of paper PMC8285479
Counter-ions that a name gives are not always drawn. ± gives the standard deviation of the averaged measurements. In all, about 1,900 compounds were measured (“normalised cell viability (NPI; 0 = phenylarsine oxide control, 1 = DMSO control)”: median about 1, lowest 2% from about 0.039 on). The list shows a part of the results.

Test system: NCI-H1944
Experiment: normalised cell viability (NPI; 0 = phenylarsine oxide control, 1 = DMSO control) (fraction of DMSO control); NCI-H1944 is a non-small cell lung cancer line; higher = more viable cells (less compound toxicity)
Details: 6 days
[1] = glucocorticoid arm: hydrocortisone 2.75 uM co-treatment, compound 1 µM
[2] = glucocorticoid arm: hydrocortisone 2.75 uM co-treatment, compound 5 µM
[3] = glucocorticoid arm: hydrocortisone 2.75 uM pre-treated 2 days and continued, compound 1 µM
[4] = glucocorticoid arm: hydrocortisone 2.75 uM pre-treated 2 days and continued, compound 5 µM
[5] = glucocorticoid arm: vehicle, compound 1 µM
[6] = glucocorticoid arm: vehicle, compound 5 µM
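Also: CTB read-out in 384-well plates, mean of triplicate wells, normalised per plate against 1 µM phenylarsine oxide and 0.1% DMSO, compounds added 24 h after seeding.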

Structure (SMILES)	normalised cell viability [1]	normalised cell viability [2]	normalised cell viability [3]	normalised cell viability [4]	normalised cell viability [5]	normalised cell viability [6]
CCc1cccc2c3c([nH]c12)C(CC)(CC(=O)O)OCC3 (centres undefined) [Etodolac]	1.007 ± 0.0058	0.9933 ± 0.0076	1.01 ± 0.013	1.001 ± 0.0082	1.003 ± 0.0058	1.003 ± 0.0058
C[C@@H]1CN(CC(=O)Nc2ccc3c(c2)Cc2cccc(-c4cc(=O)cc(N5CCOCC5)o4)c2S3)C[C@H](C)O1	0.992 ± 0.01	1.01 ± 0.034	0.9797 ± 0.007	0.984 ± 0.017	1.01 ± 0.012	1.013 ± 0.0058
CN(C)CCCO[C@@H]1[C@H]2OC(C)(C)O[C@H]2O[C@@H]1[C@H](O)CO [Amiprilose hydrochloride]	0.998 ± 0.013	1 ± 0.016	0.917 ± 0.13	0.999 ± 0.016	0.998 ± 0.011	0.999 ± 0.011
C[C@]12CC[C@@H]3c4ccc(O)cc4CC[C@H]3[C@@H]1C[C@@H](O)[C@@H]2O [Estriol]	1.02 ± 0.011	1.01 ± 0.014	1.01 ± 0.01	1.02 ± 0.021	1.007 ± 0.0058	1.01 ± 0.011
C=CC(=O)Nc1ccc2ncnc(Nc3ccc(OCc4cccc(F)c4)c(Cl)c3)c2c1	0.905 ± 0.016	0.854 ± 0.043	0.92 ± 0.014	0.93 ± 0.023	0.815 ± 0.021	0.623 ± 0.016
CC1=C(CC(=O)O)c2cc(F)ccc2/C1=C\c1ccc([S+](C)[O-])cc1 (centres undefined) [Sulindac]	1 ± 0.0089	1.03 ± 0.011	1.03 ± 0.046	1.01 ± 0.023	0.9923 ± 0.0055	0.9943 ± 0.006
C=CC(=O)N1CCC[C@@H](n2nc(-c3ccc(Oc4ccccc4)cc3)c3c(N)ncnc32)C1	0.885 ± 0.026	0.894 ± 0.019	0.9473 ± 0.0055	0.931 ± 0.051	0.836 ± 0.027	0.771 ± 0.036
O=C(O)/C(=C\c1c(C(=O)O)[nH]c2cc(Cl)cc(Cl)c12)c1ccccc1	1.02 ± 0.015	1.06 ± 0.017	1.017 ± 0.0058	1.08 ± 0.081	0.995 ± 0.002	1.013 ± 0.0058
COC[C@H](NC(=O)c1cnc(C)s1)C(=O)N[C@@H](COC)C(=O)N[C@@H](Cc1ccccc1)C(=O)[C@@]1(C)CO1 [Oprozomib (ONX 0912)]	0.208 ± 0.051	0.0253 ± 0.0081	0.7 ± 0.017	0.301 ± 0.021	0.0106 ± 0.0015	0.00109 ± 0.00065
O=C(O)c1cc(O)c2ccc(Cl)cc2n1 [7-Chlorokynurenic acid]	1.002 ± 0.0069	0.974 ± 0.0072	1.01 ± 0.015	0.9873 ± 0.0046	1.01 ± 0.01	0.997 ± 0.0036
NCCS(=O)O [Hypotaurine]	1.01 ± 0.01	1.01 ± 0.011	1.02 ± 0.015	1.01	0.995 ± 0.0044	0.9943 ± 0.0055
N[C@@H](C(=O)N[C@@H]1C(=O)N2C(C(=O)O)=C(Cl)CS[C@H]12)c1ccccc1 [Cefaclor]	1.017 ± 0.0058	1 ± 0.027	1.013 ± 0.0058	1.015 ± 0.0071	0.9933 ± 0.007	0.999 ± 0.012
CN1CCC[C@@H]1c1cccnc1.Cc1ccc(C(=O)O[C@H](C(=O)O)[C@@H](OC(=O)c2ccc(C)cc2)C(=O)O)cc1 [(+)-Nicotine (+)-di-p-toluoyl tartrate]	1.03 ± 0.015	1.02 ± 0.016	1.03 ± 0.01	1.03 ± 0.021	1.027 ± 0.0058	1.03 ± 0.015
N=C(N)N/N=C/c1c(Cl)cccc1Cl [Guanabenz acetate]	1.013 ± 0.0058	0.991 ± 0.021	1.02	1.01 ± 0.01	1.023 ± 0.0058	1.02 ± 0.01
N=C(N)N/N=C/c1c(Cl)cccc1Cl [Guanabenz Acetate]	1.001 ± 0.0081	0.986 ± 0.021	1.003 ± 0.0061	0.964 ± 0.012	1.01 ± 0.011	0.986 ± 0.008
N#C/C(=C\c1ccc(O)c(O)c1)C(=O)NCCCNC(=O)/C(C#N)=C/c1ccc(O)c(O)c1 [Tyrphostin AG 537]	0.9823 ± 0.0093	0.957 ± 0.021	0.821 ± 0.3	0.953 ± 0.025	0.9857 ± 0.0067	0.9917 ± 0.0055
CN(C)CCOC(=O)COc1ccc(Cl)cc1 [Centrophenoxine hydrochloride]	1.007 ± 0.0058	1.017 ± 0.0058	1.006 ± 0.0075	0.993 ± 0.039	1.001 ± 0.0085	0.9917 ± 0.0074
Brc1c(NC2=NCCN2)ccc2nccnc12	0.992 ± 0.011	0.9953 ± 0.0072	0.904 ± 0.17	0.982 ± 0.011	0.9963 ± 0.0038	0.9957 ± 0.004
COc1ccc(C[C@@H]2c3cc(OC)c(OC)cc3CC[N@+]2(C)CCC(=O)OCCCCCOC(=O)CC[N@@+]2(C)CCc3cc(OC)c(OC)cc3[C@H]2Cc2ccc(OC)c(OC)c2)cc1OC [Cisatracurium Besylate]	1.023 ± 0.0058	1 ± 0.014	1.013 ± 0.0058	1.02 ± 0.016	1.007 ± 0.0058	1.007 ± 0.0058
